# Read counts are not given, so values of variants with three or more changes are uncertain.
# B1: LINE1-mini (parent)
# chain: GGCAGAGCUCAACACAGCGUGGCAAAGUGGCUGUGGCUAGACUGCC
# Variants of: B1
# Assay: self-cleavage, relative activity (ratio to wild type); higher = more cleavage; in vitro, sequencing; the parent is a self-cleaving ribozyme
row,Variant,self-cleavage
1,GGCAGAGCUUAACAGAGCGUGUCAAAGUGGCUGUGGCUAGACUGCC [C10U C15G G22U],0.06
2,GGCAGAGCUUAACAUAGCGUGGCAAUGUGGCUGUGUCUAGACUGCC [C10U C15U A26U G36U],0.07
3,GGCAGAGCUUAACAUAGUGUGGCAAAGUGGCUGUGGCUAGACUGCC [C10U C15U C18U],0.08
4,GGCAGAGCUUAACAUAGCCUGGCAAAGUGGCUGUUGCUAGACUACC [C10U C15U G19C G35U G44A],0.03
5,GGCAGAGCUUAACAUAGCGUAGCAAAGUGGCUGCGGCUAGACUGCC [C10U C15U G21A U34C],0.05
6,GGCAGAGCUUAACACAGAGUGGCCAAGUGGCUGUGGCUAGACUGCC [C10U C18A A24C],0.19
7,GGCAGAGCUUAACACAGACUGGCAAAGUGGCUGUGGCUAGACUGCC [C10U C18A G19C],0.37
8,GGCAGAGCUUAACACAGAGUGCCAAAGUGGCUGUGGCUAGACUGCC [C10U C18A G22C],0.06
9,GGCAGAGCUUAACACAGGUUCGCAAAGUGGCUGUGGCUAGACUGCC [C10U C18G G19U G21C],0.22
10,GGCAGAGCUUAACACAGGGUGGCAAAGUGGCUGUUGCUCGACUGCC [C10U C18G G35U A39C],0.02
11,GGCAGAGCUUAACACAGGGUGGCAAAGUGGCUGUUGCUAGACUGUC [C10U C18G G35U C45U],0.05
12,GGCAGAGCUUAACACAGGGUGGCAAAGUGGCUGUGGCUAGACCGCC [C10U C18G U43C],0.01
13,GGCAGAGCUUAACACAGUGUGGCAAUGUGGCUGUGGCUAGACAGCC [C10U C18U A26U U43A],0.02
14,GGCAGAGCUUAACACAGUGUGGGAAAGUGGUUGUGGCUAGACUGCC [C10U C18U C23G C31U],0.02
15,GGCAGAGCUUAACACAGCGUGGGAAAGUGACUGGGGCUAGACUGCC [C10U C23G G30A U34G],0.34
16,GGCAGAGCUUAACACAGCGUGGUAAUGUGGCUGUGGCUAGACUGCC [C10U C23U A26U],0.07
17,GGCAGAGCUUAACACAGCGUGGUAAUGUGGCUGUGGCUAGAGUCCC [C10U C23U A26U C42G G44C],0.02
18,GGCAGAGCUUAACACAGCGUGGUAAAGUGACUGUGGCUAGACUGCC [C10U C23U G30A],0.26
19,GGCAGAGCUUAACACAGCGUGGUAAAGUGUCUGUCGCUAGACUGCC [C10U C23U G30U G35C],0.03

row,Variant,self-cleavage
1,GGCAGAGCUUAACACAGCGUGGUAAAGUGGCUGUAGUUACCCUGCC [C10U C23U G35A C37U G40C A41C],0
2,GGCAGAGCUUAACACAGCGUGGCAAAGUGGAUGUUGCUAGACUGCC [C10U C31A G35U],0.02
3,GGCAGAGCUUAACACAGCGUGGCAAAGUGGGUGUGGAUAGACUGCC [C10U C31G C37A],0.03
4,GGCAGAGCUUAACACAGCGUGGCAAAGUGGGUAUGGCUAGACUGCC [C10U C31G G33A],0
5,GGCAGAGCUUAACACAGCGUGGCAAAGUGGGAGUGGCUAGACUGCC [C10U C31G U32A],0.07
6,GGCAGAGCUUAACACAGCGUGGCAAAGUGGGUGAGGCUAGACUGCC [C10U C31G U34A],0.01
7,GGCAGAGCUUAACACAGCGUGGCAAAGUGGCUGUGGAUAGAGUGCC [C10U C37A C42G],0
8,GGCAGAGCUUAACACAGCGUGGCAAAGUGGCUGUGGGUAGACUCCC [C10U C37G G44C],0.08
9,GGCAGAGCUUAACACAGCGUGGCAAAGUGGCUGUGGGAAGACUGCC [C10U C37G U38A],0
10,GGCAGAGCUUAACACAACGUAGCAAAGUGGCUGUUGCAAGACUGCC [C10U G17A G21A G35U U38A],0.03
11,GGCAGAGCUUAACACAACGAGGCAAAGUUGCUGUCGACAGACUACC [C10U G17A U20A G29U G35C C37A U38C G44A],0.01
12,GGCAGAGCUUAACACACCGUGGCAAAGUGGCUGUGGUUAGUCUGCC [C10U G17C C37U A41U],0.02
13,GGCAGAGCUUAACACACCGUGUCAAAGUGGCUGUGGCUAGAUUGCC [C10U G17C G22U C42U],0.05
14,GGCAGAGCUUAACACAUCAUGCCAAAGUGGCUGUGGCUAGUCUGCC [C10U G17U G19A G22C A41U],0.06
15,GGCAGAGCUUAACACAUCCUGGCAAAGUGGCCCUGGCUAGACUGCC [C10U G17U G19C U32C G33C],0
16,GGCAGAGCUUAACACAUCUUGGCAAAGUUGUUGUGGCUAGACUGCC [C10U G17U G19U G29U C31U],0.05
17,GGCAGAGCUUAACACAUCGUGGCAAAGUGCCUGUGGCUAGACUGCC [C10U G17U G30C],0.42
18,GGCAGAGCUUAACACAGCAUGGCAAUGUGGCUGUGGCUAGACCGCC [C10U G19A A26U U43C],0.06
19,GGCAGAGCUUAACACAGCAUAGCAAAGUGGCUGUGGCUAGACUGCC [C10U G19A G21A],1.1

row,Variant,self-cleavage
1,GGCAGAGCUUAACACAGCAUGCCAAAGUGGCUGUGGCUAGACAGCC [C10U G19A G22C U43A],0.01
2,GGCAGAGCUUAACACAGCCUGGCAGAGUGGCUGUGGAUAGACUGCC [C10U G19C A25G C37A],0.04
3,GGCAGAGCUUAACACAGCCUGGCAAAGUGGUCGUGGCUAGACUGCC [C10U G19C C31U U32C],0.04
4,GGCAGAGCUUAACACAGCCUGGCAAAGUGGCUUUGGCUAGACUGCC [C10U G19C G33U],0.09
5,GGCAGAGCUUAACACAGCUUGGCUAAGUGGCUGUGGCUAGACUGCC [C10U G19U A24U],0.14
6,GGCAGAGCUUAACACAGCUUGGCUAAGUGCCUGUGGCUAGACUCCG [C10U G19U A24U G30C G44C C46G],0.01
7,GGCAGAGCUUAACACAGCUUGGCAAAGUGGCUGUGGUUAGACUGCC [C10U G19U C37U],0.02
8,GGCAGAGCUUAACACAGCUUGGCAAAGUUGCUGUGGCUCGACUGCC [C10U G19U G29U A39C],0.07
9,GGCAGAGCUUAACACAGCUUGGCAAAGUGUCUGUGGCUAGACUGCC [C10U G19U G30U],0.4
10,GGCAGAGCUUAACACAGCGUAGCAAUGUGGCUUUGGCGAGACUGGC [C10U G21A A26U G33U U38G C45G],0.05
11,GGCAGAGCUUAACACAGCGUAGCAAAGUGACUGUGGCUAGACUGCC [C10U G21A G30A],0.74
12,GGCAGAGCUUAACACAGCGUAGCAAAGUGGCUGUGCCUAUACUGCC [C10U G21A G36C G40U],0.01
13,GGCAGAGCUUAACACAGCGUUGCUAAGUGGCUGUGGCUAGACUGCC [C10U G21U A24U],0.8
14,GGCAGAGCUUAACACAGCGUUGCAAAGUGGUUGUGGCUAGACUGCC [C10U G21U C31U],0.53
15,GGCAGAGCUUAACACAGCGUGACAAAGUGGCUGUGGAUAAAAUGCC [C10U G22A C37A G40A C42A],0.01
16,GGCAGAGCUUAACACAGCGUGACAAAGCGGCUGUGGCUAGACUGCC [C10U G22A U28C],0.03
17,GGCAGAGCUUAACACAGCGUGCCAAAGUGGCUGUGGCUAGACUGCA [C10U G22C C46A],0.07
18,GGCAGAGCUUAACACAGCGUGCCAAAUUGGCCGUGGCCAGACUGCC [C10U G22C G27U U32C U38C],0.01
